Data taken from patent publication US20220105150A1, “AMPHIPATHIC ALPHA-HELICAL ANTIMICROBIAL PEPTIDES TREAT INFECTIONS BY GRAM-NEGATIVE PATHOGENS” (priority 2019, published 2022).
“And” between values parts separate entries of the source, which are not always exact repeats. Equal entries are not always repeated. Where two headings read alike, the source gives them in different places. Part of at least one peptide drawing is inferred or uncertain, most often the ends.

Experiments:
[1] = tested on: Acinetobacter baumannii strains resistant to Polymyxin B and Colistin; conditions: geometric mean of MIC values from seven strains resistant to Polymyxin B and Colistin
Excerpt: The coupling procedure used 5 equivalents of Fmoc-D-amino acid or Fmoc-L-amino acid and HCTU (O-(1H-6-chlorobenzotriazole-1-yl)-1,1,3,3-tetramethyluronium hexafluorophosphate) and 6-Cl-HOBt (1-hydroxy-6-chloro-benztriazole) at 4.5 equivalents in DMF (Fisher Scientific, Denver, Colo.) and N-diisopropylethylamine (DIPEA) 10 equivalents (Oakwood Products, Inc., Estill, S.C.) in N-methyl-2-pyrrolidinone (NMP) (Fisher Scientific, Denver, Colo.) with the first and second couplings at room temperature for 30 min each. The deprotection procedure (removal of Fmoc protecting group) was carried out by treatment of the resin with 0.1 M HOBt (1-hydroxybenzotriazole) in DMF with 20% piperidine for 30 min. […] The resin was removed by filtration and peptide was precipitated with ice-cooled ethyl ether on ice for 15 min. Ether was decanted, the peptide was washed twice with ether and redissolved in acetonitrile/water (1:1, with 0.2% TFA) and the solution lyophilized to obtain the crude peptide. • Analytical and Preparative Purification by Reversed-Phase Chromatography: Analytical RP-HPLC: Column, Luna C18 (2), 250×4.6 mm I.D., 5 μm particle size, 100 Å pore size from Phenomenex (Torrance, Calif.). Run conditions: linear AB gradient (1% acetonitrile/min, starting from 2% acetonitrile) at a flow-rate of 1 ml/min, where eluent A is 0.2% aq. TFA and eluent B is 0.18% TFA in acetonitrile; temperature, 30° C. Preparative RP-HPLC: Peptides were dissolved in 0.2% aq. TFA containing 2% acetonitrile to a final concentration of 10 mg/ml. Following filtration through a 0.45 μm Millipore filter and subsequently through a 0.22 μm filter, the peptide solutions were loaded onto the column via multiple 20-ml injections into a 20-ml injection loop at a flow-rate of 10 ml/min. Column, Luna C18 (2), 250×30 mm I.D., 5 um particle size, 100 Å pore size from Phenomenex. Run conditions: 2% acetonitrile/min gradient up to an acetonitrile concentration 10% below that required to elute the peptide during analytical RP-HPLC, then shallow gradient elution (0.05% or 0.1% acetonitrile/min depending on the complexity of impurities near the product of interest on the analytical run of the crude peptide) at a flow-rate of 10 ml/min (same eluents as shown above for analytical RP-HPLC); at room temperature. • Temperature Profiling of Peptides on Reversed-phase HPLC to Measure Dimerization and Oligomerization: Purified peptides were analyzed on an Agilent 1200 series liquid chromatograph for temperature profiling using a Zorbax 300 SB-C8 column (150 mm×2.1 mm I.D.; 5 μm particle size, 300 Å pore size) from Agilent Technologies. […] Temperature profiling was carried out on peptide mixtures run at each temperature in 2° C. increments from 5° C. to 41° C. and 10° C. increments from 5° C. to 75° C. Twenty minutes was allowed between runs for temperature equilibration. • Characterization of Helical Structure: The mean residue molar ellipticities of peptides were determined by circular dichroism (CD) spectroscopy, using a Jasco J-815 spectropolarimeter (Jasco Inc. Easton, Md., USA) at 5° C. under KP buffer (50 mM NaH2PO4/Na2HPO4/100 mM KCl, pH 7.0) as well as in the presence of an α-helix inducing solvent, 2,2,2-trifluoroethanol, TFE, (50 mM NaH2PO4/Na2HPO4/100 mM KCl, pH 7.0 buffer/50% TFE). A 10-fold dilution of an approximately 500 μM stock solution of the peptide analogs was loaded into a 0.1 cm quartz cell and its ellipticity scanned from 195 to 250 nm.

[2] = Helical structure by circular dichroism spectroscopy; type: physicochemical; conditions: for Aqueous pH 7 [θ]222: 100 mM KCl, 50 mM Na2HPO4/NaH2PO4, pH 7.0; for Aqueous pH 7 [θ]222 / 50% TFE [θ]222: 222 nm; for 50% TFE [θ]222: aqueous buffer containing 50% trifluoroethanol; for Δ[Θ]222 TFE-aqueous: difference 50% TFE minus aqueous; for % Helix Induced: increase in molar ellipticity in the presence of 50% TFE; for Aqueous pH 7 % Helix: relative to molar ellipticity of the peptide in 50% TFE

Compound	MICGM [1] [µM]	Aqueous pH 7 [θ]222 [2]	50% TFE [θ]222 [2]	Δ[Θ]222 TFE-aqueous [2]	% Helix Induced [2] [%]	Aqueous pH 7 % Helix [2] [%]	MICGM ([1]; listed as D86) [µM]	MICGM ([1]; listed as D86(Lys^1-6 Dab-1))
CC(=O)N[C@H](CCCCN)C(=O)N[C@H](CC(C)C)C(=O)N[C@H](CCCCN)C(=O)N[C@H](CO)C(=O)N[C@H](CC(C)C)C(=O)N[C@H](CC(C)C)C(=O)N[C@H](CCCCN)C(=O)N[C@@H](C(=O)N[C@H](CC(C)C)C(=O)N[C@H](CO)C(=O)N[C@H](CCCCN)C(=O)N[C@H](C)C(=O)N[C@H](CCCCN)C(=O)N[C@H](C)C(=O)N[C@H](C)C(=O)N[C@H](CCCCN)C(=O)N[C@H](CC(C)C)C(=O)N[C@H](CCCCN)C(=O)N[C@@H](C(=O)N[C@H](CC(C)C)C(=O)N[C@H](CC(C)C)C(=O)N[C@H](CCCCN)C(=O)N[C@H](C)C(=O)N[C@H](CC(C)C)C(=O)N[C@H](CO)C(=O)N[C@H](CCCCN)C(N)=O)[C@H](C)O)[C@H](C)O [D84(Lys^1-6Lys-1), Ac-KL(Lys)SLL(Lys)TLS(Lys)AKAAKL(Lys)TLL(Lys)ALS(Lys)-amide]	0.5	8,230 mdeg cm^2/(dmol*res)	33,653 mdeg cm^2/(dmol*res)	25,423 mdeg cm^2/(dmol*res)	76	24		
CC(=O)N[C@H](CCCCN)C(=O)N[C@H](CC(C)C)C(=O)N[C@H](CCCCN)C(=O)N[C@H](CO)C(=O)N[C@H](CC(C)C)C(=O)N[C@H](CC(C)C)C(=O)N[C@H](CCCCN)C(=O)N[C@@H](C(=O)N[C@H](CC(C)C)C(=O)N[C@H](CO)C(=O)N[C@H](CCCCN)C(=O)N[C@H](C)C(=O)N[C@H](CCCCN)C(=O)N[C@H](C)C(=O)N[C@H](C)C(=O)N[C@H](CCCCN)C(=O)N[C@H](CC(C)C)C(=O)N[C@H](CCCCN)C(=O)N[C@@H](C(=O)N[C@H](CC(C)C)C(=O)N[C@H](CC(C)C)C(=O)N[C@H](CCCCN)C(=O)N[C@H](C)C(=O)N[C@H](CC(C)C)C(=O)N[C@H](CO)C(=O)N[C@H](CO)C(N)=O)[C@H](C)O)[C@H](C)O [D101(Lys^1Ser^26-5Lys-1), Ac-KL(Lys)SLL(Lys)TLS(Lys)AKAAKL(Lys)TLL(Lys)ALS(Ser)-amide]	0.8	2,538 mdeg cm^2/(dmol*res)	38,538 mdeg cm^2/(dmol*res)	36,000 mdeg cm^2/(dmol*res)	93	7		
CC(=O)N[C@H](CCCCN)C(=O)N[C@H](CC(C)C)C(=O)N[C@H](CCCNC(=N)N)C(=O)N[C@H](CO)C(=O)N[C@H](CC(C)C)C(=O)N[C@H](CC(C)C)C(=O)N[C@H](CCCNC(=N)N)C(=O)N[C@@H](C(=O)N[C@H](CC(C)C)C(=O)N[C@H](CO)C(=O)N[C@H](CCCNC(=N)N)C(=O)N[C@H](C)C(=O)N[C@H](CCCCN)C(=O)N[C@H](C)C(=O)N[C@H](C)C(=O)N[C@H](CCCCN)C(=O)N[C@H](CC(C)C)C(=O)N[C@H](CCCNC(=N)N)C(=O)N[C@@H](C(=O)N[C@H](CC(C)C)C(=O)N[C@H](CC(C)C)C(=O)N[C@H](CCCNC(=N)N)C(=O)N[C@H](C)C(=O)N[C@H](CC(C)C)C(=O)N[C@H](CO)C(=O)N[C@H](CCCNC(=N)N)C(N)=O)[C@H](C)O)[C@H](C)O [D87(Lys^1-6Arg-1), Ac-KL(Arg)SLL(Arg)TLS(Arg)AKAAKL(Arg)TLL(Arg)ALS(Arg)-amide]	0.8	10,192 mdeg cm^2/(dmol*res)	31,308 mdeg cm^2/(dmol*res)	21,116 mdeg cm^2/(dmol*res)	67	33		
CC(=O)N[C@H](CCCCN)C(=O)N[C@H](CC(C)C)C(=O)N[C@@H](CCN)C(=O)N[C@H](CO)C(=O)N[C@H](CC(C)C)C(=O)N[C@H](CC(C)C)C(=O)N[C@@H](CCN)C(=O)N[C@@H](C(=O)N[C@H](CC(C)C)C(=O)N[C@H](CO)C(=O)N[C@@H](CCN)C(=O)N[C@H](C)C(=O)N[C@H](CCCCN)C(=O)N[C@H](C)C(=O)N[C@H](C)C(=O)N[C@H](CCCCN)C(=O)N[C@H](CC(C)C)C(=O)N[C@@H](CCN)C(=O)N[C@@H](C(=O)N[C@H](CC(C)C)C(=O)N[C@H](CC(C)C)C(=O)N[C@@H](CCN)C(=O)N[C@H](C)C(=O)N[C@H](CC(C)C)C(=O)N[C@H](CO)C(=O)N[C@@H](CCN)C(N)=O)[C@H](C)O)[C@H](C)O [D86(Lys^1-6Dab-1), Ac-KL(L-Dab)SLL(L-Dab)TLS(L-Dab)AKAAKL(L-Dab)TLL(L-Dab)ALS(L-Dab)-amide]	1.0	1,769 mdeg cm^2/(dmol*res)	27,923 mdeg cm^2/(dmol*res)	26,154 mdeg cm^2/(dmol*res)	94	6	1.0	1.0 µM and 0.9 µM
